From the supplement of paper PMC10338343
± gives the standard deviation. The entries are a selection whose mix differs from that of the whole data set.

What follows are sequences tested on MIWI (PIWIL1) piRISC loaded with L1MC piRNA (30 nt) (assay: pre-steady-state target cleavage rate (min^-1); MIWI and MILI are mouse PIWI proteins and EfPiwi is from a freshwater sponge; tags in brackets are library labels; higher = faster piRNA-guided slicing of the target). Settings: guide: L1MC piRNA 5'p-UAACUAAAUACUAUGCAAGCUGUAGGUCCU; auxiliary factor: 500 nM mouse GTSF1.
Experimental: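 Cleave-'n-Seq: a library of target RNAs (target site embedded in constant flanks, ACAGCATTCCGCGTTAGTGATATCCG... 5' flank; DNA-blocked outside the site) at 0.1 nM was incubated with 1 nM active mouse MILI or MIWI piRISC (synthetic 5'-monophosphorylated piRNA guide) with or without 500 nM mouse GTSF1 at 33 °C for 1 min to 16 h. Uncleaved targets were sequenced and normalised to non-target controls, and the pooled three trials were fitted to a burst-and-steady-state model to give the pre-steady-state cleavage rate (min^-1; k3 is constrained to at most 1e-4). Sequence is the target site only; target names encode pairing extent (gX:gY) and contiguous / 1-mismatch / 2-mismatch / bulge geometry. Fits with R² ≤ 0 are excluded.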
For UCCUGGAUGAGCUUGCAUAGUAUUUAUGUUA, the “pre-steady-state target cleavage rate” value was 0.273 ± 0.042.
With UGGACCUCAGCUUGCAUAGUAUUUAGUUA the “pre-steady-state target cleavage rate” value was 1.43 ± 0.094.
In the case of UCCUGGAUGACGUUGCAUAGUAUUUAGUUA, the “pre-steady-state target cleavage rate” value is reported as 0.0518 ± 0.0098.
UCCUGGAACAGCAAGCAUAGUAUUUAGAAA was tested, and the “pre-steady-state target cleavage rate” value was 0.118 ± 0.022.
For AGGACCUACAGCUUGCAUAGUAUUUACAAA, the “pre-steady-state target cleavage rate” value was 0.403 ± 0.055.
In the case of UCCACCUACUGCUUGGAUAGUAUUUAGUUA, the “pre-steady-state target cleavage rate” value is reported as 1.14 ± 0.049.
With UCGACCUACACCUUGCAUAGUAUUUAGUUA the “pre-steady-state target cleavage rate” value was 1.15 ± 0.046.
In the case of UGGACCUACAGCUUGCUUAGUAUAUAGUUA, the “pre-steady-state target cleavage rate” value is reported as 0.842 ± 0.063.
UCCUGGAUGUCCUUGGAUAGUAUUUAGUUA was tested, and the “pre-steady-state target cleavage rate” value was 0.167 ± 0.028.
For AGGACCUACAGCUUGCAUAGUUUUAAGUUA, the “pre-steady-state target cleavage rate” value was 0.254 ± 0.024.
With UCCUGGAUGAGCUUGCAUAGUAGUUAGUUA the “pre-steady-state target cleavage rate” value was 0.269 ± 0.022.
In the case of UGGACCUACAGCUUGGAUAGUAUAUAGUUA, the “pre-steady-state target cleavage rate” value is reported as 0.785 ± 0.051.
With UCCUGGAUCAGCUAGCAUAGUAUUUAGUAA the “pre-steady-state target cleavage rate” value was 0.657 ± 0.05.
With UCCUGCUACUGCUUGCAUAGUUUUUAGUUA the “pre-steady-state target cleavage rate” value was 0.248 ± 0.024.
In the case of UCCACCUACAGCUUGCAUAGUAUUAUCUUA, the “pre-steady-state target cleavage rate” value is reported as 0.3 ± 0.046.
In the case of UCCUGGAUCAGCUUGCAUAGUAAUUAGAAA, the “pre-steady-state target cleavage rate” value is reported as 0.237 ± 0.05.
For UCCUGCUACAGCUUGCUUAGUAUUUAGUAA, the “pre-steady-state target cleavage rate” value was 0.279 ± 0.023.
In the case of UCCACCUACAGGAUGCAUAGUAUUUACAAA, the “pre-steady-state target cleavage rate” value is reported as 0.316 ± 0.049.
With “UCCUGCUACAGCUUGCAUAGUAUUUAGUUU [g2:g25:cont:t1U]” the “pre-steady-state target cleavage rate” value was 0.948 ± 0.054.
In the case of AGGACCUACAGCUUGCAUAGUAUUAACUUA, the “pre-steady-state target cleavage rate” value is reported as 0.263 ± 0.046.
In the case of UCCUGGUACAGCUUGCAUAGUAUUUUGUAA, the “pre-steady-state target cleavage rate” value is reported as 0.107 ± 0.022.

Same assay, conditions: guide: L1MC piRNA 5'p-UAACUAAAUACUAUGCAAGCUGUAGGUCCU; auxiliary factor: none (no GTSF1)
For UCCUGGAUGAGCUUGCAUAGUAUUUAUGUUA, the “pre-steady-state target cleavage rate” value was 0.0182 ± 0.0042.
For UGGACCUCAGCUUGCAUAGUAUUUAGUUA, the “pre-steady-state target cleavage rate” value was 0.055 ± 0.011.
With UCCUGGAUGACGUUGCAUAGUAUUUAGUUA the “pre-steady-state target cleavage rate” value was 0.00346 ± 0.003.
In the case of AGGACCUACAGCUUGCAUAGUAUUUACAAA, the “pre-steady-state target cleavage rate” value is reported as 0.00917 ± 0.0037.
UCCACCUACUGCUUGGAUAGUAUUUAGUUA was tested, and the “pre-steady-state target cleavage rate” value was 0.0503 ± 0.0082.
With UCGACCUACACCUUGCAUAGUAUUUAGUUA the “pre-steady-state target cleavage rate” value was 0.0525 ± 0.008.
UGGACCUACAGCUUGCUUAGUAUAUAGUUA was tested, and the “pre-steady-state target cleavage rate” value was 0.0175 ± 0.0052.
With UCCUGGAUGUCCUUGGAUAGUAUUUAGUUA the “pre-steady-state target cleavage rate” value was 0.00666 ± 0.0021.
In the case of AGGACCUACAGCUUGCAUAGUUUUAAGUUA, the “pre-steady-state target cleavage rate” value is reported as 0.0231 ± 0.007.
UCCUGGAUGAGCUUGCAUAGUAGUUAGUUA was tested, and the “pre-steady-state target cleavage rate” value was 0.0182 ± 0.005.
In the case of UGGACCUACAGCUUGGAUAGUAUAUAGUUA, the “pre-steady-state target cleavage rate” value is reported as 0.0287 ± 0.0073.
UCCUGGAUCAGCUAGCAUAGUAUUUAGUAA was tested, and the “pre-steady-state target cleavage rate” value was 0.00636 ± 0.0026.
UCCUGCUACUGCUUGCAUAGUUUUUAGUUA was tested, and the “pre-steady-state target cleavage rate” value was 0.0289 ± 0.0066.
With UCCACCUACAGCUUGCAUAGUAUUAUCUUA the “pre-steady-state target cleavage rate” value was 0.00377 ± 0.0028.
UCCUGGAUCAGCUUGCAUAGUAAUUAGAAA was tested, and the “pre-steady-state target cleavage rate” value was 0.00401 ± 0.0033.
For UCCUGCUACAGCUUGCUUAGUAUUUAGUAA, the “pre-steady-state target cleavage rate” value was 0.0083 ± 0.002.
“UCCUGCUACAGCUUGCAUAGUAUUUAGUUU [g2:g25:cont:t1U]” was tested, and the “pre-steady-state target cleavage rate” value was 0.0784 ± 0.018.
In the case of AGGACCUACAGCUUGCAUAGUAUUAACUUA, the “pre-steady-state target cleavage rate” value is reported as 0.00949 ± 0.0032.
With UCCUGGUACAGCUUGCAUAGUAUUUUGUAA the “pre-steady-state target cleavage rate” value was 0.0105 ± 0.0027.
